# Several values for one entry are separate records, joined by “and”; a condition that tells them apart may be missing. Equal values may be shown once. Out of some 360,000 compounds screened, about 6,000 (1.7%) were called active. Inconclusive results, whose numbers are uncertain, are shown with a selection of clear calls. The call rests on the fitted dose curve; in most records, active means well fitted cell-killing curve with a large enough effect; inconclusive means small, poorly fitted or top-dose-only effect, or effect the other way; inactive means flat fitted curve, though single readings scatter. Potencies of inconclusive entries are left out as doubtful fits.
# Assay: qHTS for induction of synthetic lethality in tumor cells producing 2HG: qHTS for the HT-1080-NT fibrosarcoma cell line;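 further: NT is the 2HG producing partner of a matched IDH1 knockdown line; nearly all actives have a fitted effect of over 55% in size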;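 on activity, negative = less viability: 0% = DMSO-treated cells and -100% = media-only wells without cells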
# Settings: HT-1080-NT fibrosarcoma viability, CellTiter-Glo ATP luminescence, 48 h; activity, negative = less viability: at 46.1 µM (top of the series)
# Procedure, shortened: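 HT-1080-NT fibrosarcoma cells (2HG-overproducing), 750 cells/well in RPMI with 5% FBS, dosed after 2 h and incubated 48 h at 37C. CellTiter-Glo luminescence normalized to DMSO and no-cell wells; concentration-response curves fitted and classed.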
# Potency means the concentration at half of the fitted maximal effect; tags describe the fitted curve by direction and shape.
SMILES,Potency,"activity, negative = less viability"
CNCC[C@H](Oc1cccc2ccccc12)c1cccs1,"inconclusive [cytotoxic, single point]",–
Clc1cccc(N2Cc3cc(-c4ccccc4)ccc3-n3nncc3C2)c1,active: 10.3 µM,–
COC(=O)C1=C(c2cc3ccccc3o2)C[C@@H]2CC[C@H]1N2C(=O)N1CCOCC1,active: 23.1 µM,–
COCCNCCOc1ccc(C(C)(C)c2ccccc2)cc1,"inconclusive [cytotoxic, single point]",–
CC12CCC3C(CC=C4CC(O)CCC43C)C1C/C(=C\c1ccccc1F)C2=O (configuration not stated),"inconclusive [cytotoxic, single point]",–
CCOC(=O)C(NC(=O)CCl)(Nc1ccc(C(O)(C(=O)OCC)C(F)(F)F)cc1)C(F)(F)F (configuration not stated),–,inactive: 9.2%
CC1C2Cc3ccc(O)cc3[C@]1(C)CCN2CCc1ccccc1 (some centres not stated),"inconclusive [cytotoxic, single point]",–
CN1[C@@H]2CC[C@H]1CC(OC(=O)C1C=Nc3ccccc31)C2 (some centres not stated),"inconclusive [cytotoxic, partial curve]",–
COc1ccc(CC2NCC(O)C2OC(C)=O)cc1 (configuration not stated),active: 1.84 µM,–
O=C1NCN(c2ccccc2)C12CCN(C(c1nnnn1C1CCCCC1)C1CC1)CC2 (configuration not stated),"inconclusive [cytotoxic, single point]",–
COC(=O)C1=C(N)Oc2cc(C)oc(=O)c2C12C(=O)Nc1ccccc12 (configuration not stated),–,inactive: 2.52%
Cc1ccc(-c2cc(-c3ccccc3)cc(-c3ccccc3)[n+]2-c2ccccc2)cc1,"inconclusive [cytotoxic, partial curve]",–
Cc1nc2cc(C(F)(F)F)ccc2n1C1CCN(Cc2nnnn2Cc2cccs2)CC1,–,inactive: -11.5%
C=C1C(=O)OC2C1CCC(C)C1(O)C=CC(=O)C21C (configuration not stated),"inconclusive [cytotoxic, single point]",–
C[C@H]1COC2=C1C(=O)C(=O)c1c2ccc2c1CCCC2(C)C,"inconclusive [cytotoxic, single point]",–
C[N+](C)(C)CC1CCCc2ccccc2C1=O (configuration not stated),"inconclusive [cytotoxic, partial curve]",–
NC(=S)c1cn(C2OC(CO)C(O)C2O)c2ncnc(N)c12 (configuration not stated),"inconclusive [cytotoxic, full curve]",–
CC(C)C(=O)Nc1ccc(C(=O)NCc2cccnc2)cc1,"inconclusive [cytotoxic, single point]",–
COc1ccc(-c2ccc3c(c2)CN(C(=O)NC2CCCCC2)Cc2cnnn2-3)cc1,"inconclusive [cytotoxic, single point]",–
COc1cccc(NP(=O)(Oc2ccccc2Cl)Oc2ccccc2Cl)c1,active: 20.6 µM,–
COc1ccc2c(c1)C(c1ccc(N(CCCl)CCCl)cc1)=NCC2,"inconclusive [cytotoxic, single point]",–
CCOP(=O)(OCC)C(NC(=O)c1ccc(C)cc1)=C(Cl)Cl,–,inactive: -0.291%
Oc1ccc(Cl)cc1Cc1cc(Cl)ccc1O,active: 16.4 µM,–
c1ccc([C@@H]2CO2)cc1,–,inactive: -3.36%

SMILES,Potency,"activity, negative = less viability"
CCOC(=O)C1=C(N)OC(C)=C(C(=O)OCCOC)C12C(=O)Nc1ccccc12 (configuration not stated),"inconclusive [rising, single point]",–
O=C([O-])c1ccc(-[n+]2c(-c3ccccc3)cc(-c3ccccc3)cc2-c2ccccc2)cc1,"inconclusive [rising, single point]",–
CN1C(=O)C(=Cc2ccc(OCCN(C)c3ccccn3)cc2)C(=O)N(C)C1=O,"inconclusive [rising, single point]",–
COc1cc(CN2C(=O)NC(=O)C3(Cc4cc(C)ccc4N(C)C3)C2=O)cc(OC)c1 (configuration not stated),"inconclusive [cytotoxic, partial curve]",–
O=C1NCN(c2ccccc2)C12CCN(C(c1ccccc1OC(F)(F)F)c1nnnn1-c1ccc3c(c1)OCCO3)CC2 (configuration not stated),"inconclusive [cytotoxic, single point]",–
O=C1NC(=O)C(=Cc2coc3ccc(O)cc3c2=O)C(=O)N1,–,inactive: -9.88%
CSC(=Nc1ccccc1)c1c(O)n(C)c(=O)n(C)c1=O,"inconclusive [cytotoxic, single point]",–
CN1CCN(c2c(F)cc([N+](=O)[O-])c(N)c2Br)CC1,–,inactive: -2.81%
CN1CCN(C2=Nc3cc(Cl)ccc3Nc3ccccc32)CC1,"inconclusive [cytotoxic, partial curve]",–
O=c1[nH]c(=S)[nH]c(O)c1/C=C1/C=c2ccccc2=N1,"inconclusive [cytotoxic, full curve, poor fit]",–
N#Cc1c(Br)n(C2OC(CO)C(O)C2O)c2ncnc(N)c12 (configuration not stated),active: 7.31 µM,–
CCOc1cc(-c2nc3c(C)cccn3c2NCC2CCCO2)ccc1O (configuration not stated),–,inactive: -4.87%
CC(=O)c1ccc(S(=O)(=O)N2CCN(c3nc4c(C)c(C)ccc4cc3C#N)CC2)cc1,"inconclusive [cytotoxic, single point]",–
Clc1ccc(COC(Cn2ccnc2)c2ccc(Cl)cc2Cl)c(Cl)c1 (configuration not stated),active: 13 µM and active: 23.1 µM,–
Cc1nn(C)c(C)c1/C=C1/CC2C3CC=C4CC(O)CCC4(C)C3CCC2(C)C1=O (configuration not stated),"inconclusive [cytotoxic, single point]",–
CCN(CC)c1ccc(CN2CC=C(c3ccc(F)cc3)CC2)cc1,"inconclusive [cytotoxic, single point]",–
C[C@@H]1CN(C2CCC(C#N)(c3ccc(F)cc3)CC2)CC[C@]1(C(=O)O)c1ccccc1 (some centres not stated),–,inconclusive: 28.7%
O=C(O)c1ccc(N=Cc2c(O)[nH]c(=O)[nH]c2=O)cc1,–,inactive: 18.9%
CC1=CC2OC3CC4OC(=O)C=CC=CC(=O)OCCC(C)C(O)C(=O)OCC2(CC1O)C4(C)C31CO1 (configuration not stated),active: 0.206 µM,–
Clc1ccc2c(c1)C(c1ccccc1Cl)=NCc1nnc(N3CCN(CCOc4ccccc4)CC3)n1-2,"inconclusive [cytotoxic, single point]",–
Cn1cc(NC(=O)CCl)cn1,"inconclusive [cytotoxic, single point]",–
COc1ccc(/C=C/C(=O)NC(=S)N2C[C@H]3C[C@H](C2)c2cccc(=O)n2C3)cc1OC,–,inactive: 3.14%
Nc1ccccc1C(=O)OCCc1ccccc1,"inconclusive [rising, full curve, poor fit]",–
CCN(CC)CCCOC(=O)C(OC(C)C)(c1ccccc1)c1ccccc1,"inconclusive [cytotoxic, single point]",–

SMILES,Potency,"activity, negative = less viability"
Cc1ccc(NC(=O)c2cc(-c3cc(Cl)ccc3C)n[nH]2)cc1NS(C)(=O)=O,"inconclusive [cytotoxic, single point]",–
C[C@@H]1CN([C@@H](C)CO)C(=O)c2c(c3ccccc3n2C)-c2ccccc2CO[C@H]1CN(C)C(=O)[C@H](C)c1ccccc1,"inconclusive [cytotoxic, single point]",–
COc1ccc(OC)c(C(O)C(C)N)c1 (configuration not stated),–,inactive: 29.5%
C[C@]12CCC3C(CC[C@@H]4C[C@H](O)CC[C@]34C)C1CCC2=O (some centres not stated),–,inactive: 9.37%
OC[C@@H]1CN(Cc2ccncc2)C[C@H](n2cnc3c(N4CCN(c5ccccc5)CC4)ncnc32)O1,"inconclusive [cytotoxic, full curve]",–
CN(C(=O)Oc1cccc2cccnc12)c1ccccc1,–,inactive: 8.21%
CC(C)(C)C(=O)N1Cc2cnnn2-c2ccccc2C1C#N (configuration not stated),–,inactive: 10.4%
O=C1NC(=O)N(Cc2ccccc2)C(=O)/C1=C\C=C\c1ccco1,"inconclusive [cytotoxic, full curve]",–
NC1CC2CCCCC2CC1(O)c1ccccc1 (configuration not stated),–,inactive: 3.25%
CCOc1c(Cl)cc(CNCCc2c[nH]c3ccccc23)cc1OC,"inconclusive [cytotoxic, single point]",–
O=S(=O)(c1cc(Cl)cc(Cl)c1)N1Cc2cc(-c3ccccc3)ccc2-n2nncc2C1,–,inactive: 16.6%
Clc1ccc(C[n+]2c(-c3ccccc3)cc(-c3ccccc3)cc2-c2ccccc2)cc1,active: 16.4 µM,–
O=C1C2(Cl)C3(Cl)C4(Cl)C(Cl)(Cl)C5(Cl)C3(Cl)C1(Cl)C5(Cl)C24Cl (configuration not stated),"inconclusive [cytotoxic, single point]",–
CN(C)c1ccc(C(=O)c2ccc(N(C)C)cc2)cc1,active: 7.08 µM,–
CCOC(=O)[C@]12Cc3cc(C)ccc3[C@H]1N(Cc1ccccc1)C(=O)c1cc(F)c(F)cc12,"inconclusive [cytotoxic, single point]",–
COc1ccc(-n2nnnc2C(c2cccs2)N2CCC3(CC2)C(=O)NCN3c2ccccc2)cc1 (configuration not stated),"inconclusive [cytotoxic, single point]",–
Cc1cccnc1-n1c(-c2ccccc2)nc2ccccc2c1=O,–,inactive: 0.0061%
C/C(=N\N1CCCCCC1)c1c(O)n(C2CCCCC2)c(=O)[nH]c1=O,"inconclusive [cytotoxic, single point]",–
CCOP(=O)(OCC)C(NS(=O)(=O)c1ccccc1)C(Cl)(Cl)Cl (configuration not stated),–,inactive: -9.26%
COCCCn1c(-c2ccc(OC)cc2)cc(C(=O)NC2CCCCCCC2)c1C,"inconclusive [cytotoxic, single point]",–
COc1cc(OC)c(OC)cc1CN1CCN(C(=O)Cc2ccccc2)CC1,–,inactive: 3.76%
CCC(=O)OC1(c2ccccc2)C(C)CN(C)CC1C (configuration not stated),–,inactive: 6.39%
CCC1(O)C(=O)OCc2c1cc1n(c2=O)Cc2cc3cc(O)ccc3nc2-1 (configuration not stated),active: 0.731 µM,–
CC/C(=N\NC(=O)Nc1ccccc1)c1c(O)n(Cc2ccccc2)c(=O)[nH]c1=O,–,inconclusive: 34.4%
